From ChEMBL document CHEMBL4888484, “Replenishing the malaria drug discovery pipeline: Screening and hit evaluation of the MMV Hit Generation Library 1 (HGL1) against asexual blood stage Plasmodium falciparum ,using a nano luciferase reporter read-out” (2022)
Values joined by “and” are separate entries in the source; they are usually repeats but may differ in a detail not shown here. Identical values can stand only once. Screen size: about 150,000 compounds; about 540 (0.36%) showed an effect of 50% or more. The list shows a part of the results.

Test system: Plasmodium falciparum
Experiment: Primary screen in NF54 nanoGlo assay, in single point, at 2uM, 72h; a lower Z score goes with more inhibition
Assay type: functional, Erythrocyte
Settings: timepoint 72 hour

Row | SMILES | % Inhibition [%] | Z score | % Inhibition (2 µM) | Z score (2 µM)
1 | CS(=O)(=O)c1ccc(CNC(=O)N2CC[C@H](C3CCCC3)C2)s1 | -17 | 1.7 | – | –
2 | Fc1ccc(CCN2CCC[C@H](n3ccnn3)C2)cc1F | -1 | 0.14 | – | –
3 | NC(=O)CNc1cccc(Br)c1 | 13 | -1.55 | – | –
4 | N#Cc1ncn(CC(=O)c2cnc(N3CCCCC3)s2)c1C#N | -6 | 0.66 | – | –
5 | COc1ccc(-c2cc(-c3ccco3)cc(-c3ccc4c(c3)NC(=O)CO4)n2)cc1 | -39 | 4.62 | – | –
6 | CCc1cnc(C)nc1N1CCC2(CCC(=O)N(Cc3ccncc3)C2)CC1 | -6 | 0.73 | – | –
7 | Cc1ccc(CN(C)C(=O)C2CCCC2)o1 | -1 | 0.12 | – | –
8 | CC(=O)N1C[C@H](C)c2scc(C)[n+]2-c2ccccc21 | -28 | 5.35 | – | –
9 | O=C1CN(C(=O)COc2ccccc2)S(=O)(=O)c2ccccc21 | -35 | 4.1 | – | –
10 | CC(C)(C)c1nnc2n1CCN(Cc1nccs1)C2 | -5 | 0.66 | – | –
11 | CS(=O)(=O)N1C[C@H]2CC[C@@H](C1)N(C(=O)CCc1cccnc1)C2 | 1 | -0.06 | – | –
12 | N#CCCN1CCC[C@H](c2ccncc2)C1 | -15 | 2.33 | – | –
13 | CCNc1ncc(CN2CCC(Cc3n[nH]c(=O)n3CC)CC2)cn1 | -3 | 0.71 | – | –
14 | CC(C)c1nc([C@@H]2CN(C(=O)C3(C(C)C)COC3)CCO2)no1 | 2 | -0.23 | – | –
15 | COc1ccc(C(=O)N[C@@H](C)C2=CCCCC2)cn1 | 3 | -0.64 | – | –
16 | CN(C[C@H](O)CO)C(=O)Nc1cccc(C(F)(F)F)c1F | -19 | 2.03 | – | –
17 | Cc1cnc(N2CCN(C(=O)c3cscn3)[C@@H](C)C2)nc1 | 3 | -0.57 | – | –
18 | O=C(O)CCN(C(=O)CCc1ccccc1Cl)C1CCOCC1 | -6 | 0.9 | – | –
19 | Cc1nnccc1NC(=O)N[C@H]1CCCc2ccccc2C1 | -1 | 0.22 | – | –
20 | COc1cn(CC(=O)NCc2ccco2)c(CN2CCC(C)CC2)cc1=O | 0 | -0.03 | – | –
21 | CCN(C(=O)c1ccnn1C)c1cccnc1C | -9 | 1.25 | – | –
22 | N#Cc1cn(Cc2cc(-c3ccccc3)no2)c(=O)[nH]c1=O | -12 | 1.26 | – | –

Row | SMILES | % Inhibition [%] | Z score | % Inhibition (2 µM) | Z score (2 µM)
23 | Cc1cc(C(=O)N[C@H](C#N)c2ccc(OCc3ccccc3)cc2)no1 | -14 | 1.48 | – | –
24 | Cc1nc(CN(C)C(=O)Cc2coc3c(C)c(C)cc(C)c23)no1 | 4 | -0.68 | – | –
25 | O=C(c1ccnc(-c2cc(F)cc(C(F)(F)F)c2)c1)N1CCOCC1 | -19 | 1.67 | – | –
26 | CCc1nc(CN[C@H](c2ccc(F)cc2F)C(C)(C)C)n[nH]1 | -14 | 2.24 | – | –
27 | CC1CN(Cc2ccccc2)CC(C)C1NC(=O)Cc1ccon1 (configuration not stated) | -5 | 0.55 | – | –
28 | NCCOc1cccc(CC(=O)NC2(c3cc(F)cc(F)c3)CC2)c1 | 14 | -1.8 | – | –
29 | O=C(O)CCCNC(=O)c1cccc(-c2ccoc2)c1 | -5 | 0.94 | – | –
30 | Clc1cnc(NC2(CN3CCCCC3)CC2)nc1 | -6 | 0.73 | – | –
31 | Cc1nc(C)c(CC(=O)Nc2nc(C)c(-c3ccccn3)s2)c(=O)[nH]1 | -7 | 1.34 | – | –
32 | CC(C)Cc1ccc(CN2C[C@@H]3CC[C@H](C2)C(=O)N3)s1 | -7 | 1.21 | – | –
33 | CC(C)C1OCCC1CNc1ncnc(N)c1Cl (configuration not stated) | 0 | 0.09 | – | –
34 | Cc1cc(C(=O)NCc2ccncc2)no1 | 43 | -6.2 | – | –
35 | Cc1cc(C)c(NCc2ccc(N3N=C(c4ccccc4)C(C)(C)[C@H]3c3ccccc3)cc2)c(C)c1 | 1 | -0.06 | – | –
36 | Cc1ccc(C(=O)N2CCN(S(=O)(=O)c3cccnc3)CC2)cc1 | -2 | 0.33 | – | –
37 | COc1nscc1S(=O)(=O)Nc1cnn(CC(F)F)c1 | -6 | 0.7 | – | –
38 | CC(C)Oc1ccc(-c2noc(Cc3nc(-c4ccc5c(c4)OCO5)cs3)n2)cc1 | -7 | 0.79 | – | –
39 | Cn1cc(-c2csc(NC(=O)c3cccc(Cl)c3)n2)cn1 | 7 | -1.37 | – | –
40 | Cc1ccc(C(=O)NC2CCN(c3ccccc3C(=O)N(C)C3CCCCC3)CC2)cc1 | 1 | -0.21 | – | –
41 | Cc1ccc(OCC(=O)c2ccc3c(c2)N(Cc2ccc(C(=O)NCC4CC4)o2)C(=O)CO3)cc1C | 3 | -0.42 | – | –
42 | CCN=C(NCCc1csc(C)n1)NCc1ccc(OC)cc1 | -14 | 1.44 | – | –
43 | C[C@H](NCCc1nc(C2CC2)cs1)c1nc2c(s1)CCC2 | -14 | 1.28 | – | –
44 | CC(=O)N(CCC(=O)N1CCOC2CCCC21)Cc1ccccc1 (configuration not stated) | -4 | 0.45 | – | –

Row | SMILES | % Inhibition [%] | Z score | % Inhibition (2 µM) | Z score (2 µM)
45 | CC(C)N(C(=O)C[n+]1ccc(C(=O)NCc2ccccc2)cc1)c1ccccc1 | 9 | -0.77 | – | –
46 | Nc1nc(N2CCC(n3cc(C(=O)O)cn3)CC2)nc2ccccc12 | -7 | 1.35 | – | –
47 | Cc1cc(Cl)ccc1CN[C@H](C)CCO | -3 | 0.4 | – | –
48 | Nc1ccc(-c2nc3ccc(F)cc3n2C2CC2)cc1 | -13 | 1.71 | – | –
49 | CN(C)C[C@H]1CCN(C(=O)CCC2CCCC2)C[C@@H]1O | -9 | 1.13 | – | –
50 | CC(C)CC[C@@H](CCNC1CCN(C)CC1)c1ccc(Cl)cc1 | 63 | -7.69 | – | –
51 | CCC(NC(=O)NCC(O)c1ccccc1F)c1c(C)nn(C)c1C (configuration not stated) | -19 | 2.18 | – | –
52 | O=S(=O)(Cc1ccccc1)NCCOc1ccc2c(c1)OCO2 | -14 | 2.67 | – | –
53 | C#CCOc1cc([C@H]2CC(=O)Nc3c2ncn3-c2cccnc2)ccc1OC | – | – | -3% and -2% | 0.45 and 0.29
54 | Brc1cncc(NCCOCC2CC2)c1 | -19 | 2.14 | – | –
55 | CC1(C)C2CN(C(=O)c3ccoc3)CC21 (configuration not stated) | -7 | 0.68 | – | –
56 | Cc1nc(-c2ccc(Cl)c(S(=O)(=O)N3CCC[C@H](C(=O)NCCc4ccccc4)C3)c2)no1 | 10 | -1.33 | – | –
57 | CC1(C)CN(C(=O)c2ccc(S(C)(=O)=O)o2)c2ccccc2O1 | 2 | -0.26 | – | –
58 | COCCN(CCOC)CC(=O)Nc1cccc(C(F)(F)F)c1 | 2 | -0.21 | – | –
59 | O=C1N(Cc2cccnc2)CCC[C@@]12CCN(Cc1ccccc1F)C2 | -9 | 0.8 | – | –
60 | COc1ccc(CCC(=O)N2CCCN(C(=O)C[C@H]3C[C@@H](C(C)=O)C3(C)C)CC2)cc1 | 12 | -1.14 | – | –
61 | CCOC(=O)[C@H]1C[C@@H]2NCCCCCCNC(=O)[C@@H]2C1 | -5 | 1.02 | – | –
62 | Cn1ccnc1[C@@]1(CNS(=O)(=O)c2cnc3ccc(F)cc3c2)NC(=O)NC1=O | -5 | 0.5 | – | –
63 | CC(=O)N[C@H]1CCCN(Cc2cccn2Cc2ccccc2C#N)C1 | -13 | 2.21 | – | –
64 | COc1cccc(C2(NC(=O)c3cc(C)no3)CCOCC2)c1F | 9 | -1.17 | – | –
65 | CC(c1nc2cc(Cl)ccc2[nH]1)N(C)CC1CNC(=O)C1 (configuration not stated) | -8 | 0.88 | – | –
66 | CC[C@@]1(C)COCCN1C(=O)CCCc1ccc2c(c1)CC(=O)N2 | -8 | 0.86 | – | –

Row | SMILES | % Inhibition [%] | Z score | % Inhibition (2 µM) | Z score (2 µM)
67 | O=C(CCc1ccc2c(c1)OCO2)N1CCC[C@H](c2[nH]ncc2-c2ccc(F)c(F)c2)C1 | -15 | 2.03 | – | –
68 | CC1(C)CC(NC(=O)C2CCN(S(=O)(=O)c3ccc(C(C)(C)C)cc3)CC2)CC(C)(C)N1 | 1 | -0.16 | – | –
69 | CCc1cnc(NC(=O)c2ccoc2C2CC2)o1 | -1 | 0.1 | – | –
70 | Cc1csc(-c2c[nH]c([C@H]3CC(=O)N(C4CCCC4)C3)n2)c1 | 1 | -0.21 | – | –
71 | COc1ccc(-c2ccc3[nH]c(CO)nc3c2)cn1 | -24 | 2.62 | – | –
72 | CNC(=O)C1CC2CCCCC2N1S(=O)(=O)c1ccc2c(c1)OCCO2 (configuration not stated) | 4 | -0.55 | – | –
73 | O=C(N[C@H](CO)CN1CCOCC1)c1cn2c(n1)CCC2 | 7 | -0.98 | – | –
74 | Cc1nc(NC(=O)NCCn2ncnn2)sc1C | 31 | -4.22 | – | –
75 | Cc1nnc(CN(C)OCc2ccccc2)o1 | -2 | 0.15 | – | –
76 | CS(=O)(=O)N1C2CCC1CC(NC(=O)Cn1cc(-c3ccc(F)cc3)cn1)C2 (configuration not stated) | -24 | 3.02 | – | –
77 | NC(=O)c1ccc(N2CC[C@H](OCCCc3ccccc3)C2)nn1 | -5 | 0.96 | – | –
78 | CC(C)c1nc(CN(C)[C@@H](CN(C)C)c2ccccc2)co1 | 11 | -1.44 | – | –
79 | CN1CCCC[C@@H](C(=O)NCc2nccs2)C1=O | 4 | -0.65 | – | –
80 | Cc1cc2nc(-c3c(C(=O)N4CCOCC4)nc4ccccn34)[nH]c2cc1C | -9 | 1.1 | – | –
81 | C=CCN(Cc1ccccc1OC)S(=O)(=O)N1CCCC1 | -15 | 2.82 | – | –
82 | COc1ccc2c(C)c(C(=O)N3CCc4[nH]nc(C5CCC5)c4C3)oc2c1 | -5 | 0.71 | – | –
83 | C#CCCC1(CCC(=O)N2CCOCC23CCC3)N=N1 | -13 | 1.65 | – | –
84 | CC(C)c1ccc(NC(=O)c2ccc3c(c2)N(S(C)(=O)=O)CC3)cc1 | 0 | 0.02 | – | –
85 | Cc1cc(C)nc(-n2nc(C)c(CC(=O)Nc3ccccc3N3CCC(C(N)=O)CC3)c2C)n1 | 6 | -0.79 | – | –
86 | CC(C)S(=O)(=O)N1CCC(c2nnc3n2CCN(C(=O)c2cscn2)C3)CC1 | -5 | 0.78 | – | –
